The results in this text go back to ChEMBL document CHEMBL4888484, “Replenishing the malaria drug discovery pipeline: Screening and hit evaluation of the MMV Hit Generation Library 1 (HGL1) against asexual blood stage Plasmodium falciparum ,using a nano luciferase reporter read-out” (2022).

The whole screen tested about 150,000 compounds, of which about 540 (0.36%) showed an effect of 50% or more. The list shows a part of the results.

The subject of this experiment is Plasmodium falciparum. The experiment can be described thus: Primary screen in NF54 nanoGlo assay, in single point, at 2uM, 72h; a lower Z score goes with more inhibition. Format: functional, Erythrocyte. Particulars: timepoint 72 hour.
On to `N#CCCn1cc([C@@H](CC(=O)c2ccccc2)C(=O)O)c2ccccc21`, for which the % Inhibition (usually the change of the read-out against control, counted positive when it falls) is on record as -17% and the Z score was determined as 2.03.
For `Cc1nc(C(NC(=O)C2CCC(C)O2)c2ccc(Cl)cc2)no1` (stereo not drawn), in that order: 2% and -0.33.
The matching figures for `O=C(c1cscn1)N1CC[C@H](N2CCOC2=O)C1`: -1% and 0.22.
For `Cc1cc(C)c(C#N)c(N[C@H]2CCS(=O)(=O)C2)n1`, in that order: -19% and 1.85.
Consider `CC(NC(=O)NC(C)(C)C)C1CCCN(C(=O)c2c[nH]c(C#N)c2)C1` (stereo not drawn), for which the “% Inhibition” value is recorded as 32% and the Z score was -3.59.
For the compound `COc1ccc(CNC(=O)CN2CCn3nc(-c4ccc(Cl)cc4)cc3C2=O)c(OC)c1`, the “% Inhibition” value is -8% and the Z score came to 1.12.
For `COc1ccc(Cl)cc1NC(=O)C1=C(C)NC(=O)N[C@H]1c1cccc2ccccc12`, in that order: 4% and -0.5.
The matching figures for `Cc1ncsc1COC(=O)c1ccnc(N(C)C)c1`: 40% and -5.4.
Turning to `CC[C@H]1COCCN1C(=O)c1ccc(-n2cnnc2)nc1`, the “% Inhibition” value was determined as 14% and the Z score is -1.94.
For `CN(Cc1cnc2ccccc2n1)C(=O)NCC1(CN2CCOCC2)CC1`, in that order: 2% and -0.26.
The matching figures for `CN(CC(=O)N1CCC[C@H]1c1ccc(Cl)c(Cl)c1)Cc1cccs1`: -12% and 1.37.
For `CC[C@H](NC(=O)c1ccn(C)c1C)c1cccc(C)n1`, in that order: 1% and -0.17.
Turning to `NC(=O)CCN1CCN([C@H](C#Cc2ccc(F)cc2)Cc2ccccc2)CC1`, the “% Inhibition” value was -3% and the Z score was 0.44.
The matching figures for `CC(NC(=O)CC1CCCO1)c1ccncc1` (stereo not drawn): -17% and 2.46.
As for `Cc1ccc(-c2csc3ncnc(N4CCNC(=O)CC4)c23)cc1`, the “% Inhibition” value is given as -7% and the Z score came to 0.88.
As to `CCN(C(=O)NCc1nnc2n1CCC2)[C@@H](C)c1cccc(OC)c1`, the “% Inhibition” value is on record as 0% and the Z score is on record as 0.01.
For `COc1ccc(-c2nc(-c3ccc4c(c3)ncn4CCC(=O)N3CCCCCC3)no2)c(OC)c1`, in that order: -22% and 2.91.
For `Cc1nc(CC(=O)N(Cc2ccccc2)CC2(O)CCCC2)cs1`, in that order: -16% and 1.46.
For the compound `CCN1CCCCC1C(=O)NC(C)CS(=O)(=O)CC` (stereo not drawn), the “% Inhibition” value is listed as -8% and the Z score is given as 1.61.
Consider `COc1ccccc1NC(=O)c1cc(-c2cc(C)sc2C)nc2onc(C)c12`, for which the “% Inhibition” value is given as -6% and the Z score came out at 0.85.
For `Cc1nsc(C)c1C(=O)Nc1ncc(Br)cc1CO`, in that order: -19% and 2.11.
For the compound `Cc1onc(-c2ccccc2Cl)c1C(=O)NC1CCCC(OC(=O)Nc2ccccc2)C1` (stereo not drawn), the “% Inhibition” value is -11% and the Z score was 1.29.
As to `CC(=O)c1cc(-c2cc(O)cc(CC[C@H]3CCCCN3)c2)ccc1O`, the “% Inhibition” value is 78% and the Z score is listed as -7.86.
For `Cc1c(Cl)cccc1NC(=O)[C@H]1CC(=O)N(c2ccc(OCc3ccccc3)cc2)C1`, the “% Inhibition” value stood at 32% and the Z score is -4.19.
Regarding `COc1nn(C)cc1C(=O)Nc1cccc(N2CCCC2=O)c1`, the “% Inhibition” value is on record as -8% and the Z score was found to be 1.18.
For `CC(C)c1ccc(C(=O)N2C[C@@H]3Oc4c(F)ccc(F)c4O[C@@H]3C2)cn1`, in that order: 1% and -0.27.
For `CCCC(C)(CO)NCC1CC=CCC1` (stereo not drawn), in that order: -8% and 1.46.
Consider `CCc1ccc(CCNC(=O)C[C@H](O)C2CC2)cc1`, for which the “% Inhibition” value is 2% and the Z score is given as -0.31.
Consider `CN(C(=O)c1ccc(-c2ncon2)cc1)[C@H]1CCCN(Cc2ccccc2)C1`, for which the “% Inhibition” value was -3% and the Z score amounted to 0.38.
As to `O=C(Nc1cccc2cccnc12)N1CC[S+]([O-])CC1`, the “% Inhibition” value is -20% and the Z score came out at 1.81.
With `Cc1ccn2c(=O)c(C(=O)NCC(C)C)c(O)nc2c1`, the “% Inhibition” value is 1% and the Z score is listed as -0.09.
As to `COc1ccc(S(=O)(=O)N2CCN(c3cc(C)nc(N4CCOCC4)n3)CC2)cc1`, the “% Inhibition” value is on record as -5% and the Z score is on record as 0.93.
For `CCC[C@]1(CO)CCCN(CC(=O)NC(C)(C)CC)C1`, in that order: 4% and -0.58.
Turning to `COC[C@H](Nc1cc(C)nc(-c2ccccc2)n1)c1ccccn1`, the “% Inhibition” value is reported as -1% and the Z score is 0.16.
For `COc1ccc(CNc2nnc(-c3nnc(C)o3)c3ccccc23)cc1`, in that order: -10% and 1.71.
The matching figures for `CN1CCC[C@H](N(C)C(=O)c2ccc(NCc3nnn(C(C)(C)C)n3)cc2)C1`: -3% and 0.43.
The matching figures for `O=C(NCc1cncc(-c2cccs2)c1)c1c(F)cccc1F`: 10% and -1.43.
On to `CCOc1nnc(CN[C@H]2CCO[C@@H]2c2c(C)nn(C)c2C)s1`, for which the “% Inhibition” value is -9% and the Z score was found to be 1.03.
`CN1CCn2nc(C(=O)N3CCC(O)(c4ccccn4)CC3)cc2C1`: the “% Inhibition” value is listed as -5% and the Z score was 0.78.
For `O=C(O)C1CC(Oc2cccc(Cl)c2)CN1` (stereo not drawn), the “% Inhibition” value is 0% and the Z score came out at 0.05.
Turning to `CC(C)n1ccc(CN[C@](C)(C(N)=O)C(C)C)n1`, the “% Inhibition” value is reported as -9% and the Z score was determined as 1.45.
For `CC(=O)NC1CN(C(=O)N[C@@H](C)c2c(C)cccc2C)C1`, in that order: -7% and 0.59.
As for `CC1(C)CN(Cc2cnn(-c3ccccc3)c2)CC[C@@]1(O)CN1CCOCC1`, the “% Inhibition” value is given as -18% and the Z score was 1.75.
Consider `Cc1ccc(C(=O)CCc2nc3ccccc3s2)cc1`, for which the “% Inhibition” value is 1% and the Z score is given as -0.11.
Take `CCc1ncnc(O[C@H]2CCN(S(=O)(=O)c3c(F)cccc3F)C2)c1F`: the “% Inhibition” value is given as -5% and the Z score worked out at 0.8.
Take `CCC(NC(=O)c1cn(CC)nc1C1CCOCC1)C(O)C(C)C` (stereo not drawn): the “% Inhibition” value is -5% and the Z score is on record as 0.97.
For `C=CCOc1cc(C(=O)N2CCCCC2)cc2occc12`, the “% Inhibition” value stood at 32% and the Z score is -4.34.
The matching figures for `Cc1nc2c(sc(=S)n2Cc2ccco2)c(=O)n1CC(=O)Nc1cccc(Cl)c1`: -13% and 1.65.
The matching figures for `COc1cccc(C2=NS(=O)(=O)N(C)C(C(=O)N3CCN(C(=O)C(C)(C)C)CC3)=C2)c1`: -9% and 1.7.
For `CCC[C@H](NC(=O)c1ccc(C)n1C)C(=O)N1CCc2sccc2C1`, in that order: -2% and 0.26.
Regarding `Cc1ccc(CCNC(=O)c2ccc3c(c2)nc2n3CC[C@H](C)C2)cc1`, the “% Inhibition” value was -9% and the Z score is listed as 1.5.
Turning to `Cc1nccc([C@H](C)NC(=O)c2cc(=O)[nH]c3ncn(C)c23)n1`, the “% Inhibition” value stood at 0% and the Z score worked out at 0.05.
The matching figures for `N#Cc1nc(C2CC2)oc1N1CCN(C(=O)Cc2ccsc2)CC1`: -8% and 0.7.
For `CC1CC(c2ccccc2F)N(c2nccc(C(F)(F)F)n2)C1` (stereo not drawn), in that order: -1% and 0.15.
